The campaign covered roughly 52,000 compounds. About 1,700 (3.3%) were called active. Rule as the data show it: active = survival mostly below about 52% (no sharp cut-off); inactive = mostly above about 56%. Some of the results follow.
These compounds were tested on Wild type (assay: growth inhibition of S. aureus wild type versus tarO mutant, primary screen, teichoic acid synthesis inhibitors, RN4220, OD600 (AID 463173)). Conditions: S. aureus RN4220 wild type/DeltatarO growth, OD600, 18 h, active compounds read low, screened at 18.75 µg/mL (by protocol).

How did the survival turn out when `O=C(O)CCCc1nc2ccccc2s1` was run?
The survival was inactive: 102%.

With `Cc1ccc(Cn2c(SCC(=O)C(C)(C)C)nc3ccsc3c2=O)cc1` as the compound, how does the survival read?
The survival was inactive: 90%.

How did the survival turn out when `CC1=Nc2cc(C(=O)NCCc3ccccc3)ccc2Sc2c(C)ccc(C)c21` was run?
Its survival is inactive: 80%.

With `COc1ccc(NC(=O)Cn2c(=O)n(-c3ccc(C)cc3)c(=O)c3c2cnn3C)cc1` as the compound, how does the survival read?
The survival was inactive: 137%.

How did the survival turn out when `O=C(Nc1ccc2nc(SCC(=O)N3CCCC3)sc2c1)c1cccc(Cl)c1` was run?
The survival was inactive: 57%.

`CC(C)CCNC(=O)C1CCN(c2nc3ccc(Cl)cc3[nH]2)CC1` was tested. Which survival did it give?
Its survival is inactive: 90%.

`COc1ccc(C)cc1NC(=O)c1ccc(=O)n(Cc2ccccc2)c1` was tested. Which survival did it give?
The survival was inactive: 89%.

With `CCOC(=O)c1c(C)[nH]c(C)c1S(=O)(=O)N(C)CC(=O)Nc1ccc(C)c(N(C)C)c1` as the compound, how does the survival read?
Its survival is inactive: 73%.

For `CCOC(=O)c1cc2c(=O)n3ccccc3nc2n(Cc2ccco2)c1=NC(=O)c1c(F)cccc1Cl`, which survival is on record?
Its survival is inactive: 86%.

With `CC1=C(C(N)=O)C(c2ccc(C)o2)C(C(N)=O)=C(C)N1` as the compound, how does the survival read?
Its survival is inactive: 110%.

How did the survival turn out when `COC(=O)c1cc2occc2n1Cc1nc(-c2cccc(Cl)c2)oc1C` was run?
The survival was inactive: 70%.

`CC1CC(NC(=O)c2ncn[nH]2)CC(C)(C)C1` (configuration not stated) was tested. Which survival did it give?
The survival was inactive: 110%.

`COc1ccc(NC(=O)c2c(C)oc3ccc(O)c(CN4CCCCCC4)c23)cc1Cl` was tested. Which survival did it give?
The survival was inactive: 89%.

For `COc1ccc(/C=C/c2nc(C#N)c(NCCc3ccccc3)o2)cc1OC`, which survival is on record?
Its survival is inactive: 110%.

`COc1ccc(CCNC(=O)c2cn(C)c3ccc(S(=O)(=O)N(C)C4CCCCC4)cc3c2=O)cc1OC` was tested. Which survival did it give?
Its survival is inactive: 90%.

Which survival does the source give for `CC(=O)Nc1ccc(S(=O)(=O)Nc2cc(-c3cn4ccccc4n3)ccc2C)cc1` here?
Its survival is inactive: 71%.

With `COc1ccc(Nc2nc3c(S(=O)(=O)c4ccccc4)nnn3c3ccsc23)cc1OC` as the compound, how does the survival read?
The survival was inactive: 125%.

How did the survival turn out when `Cc1cccc(C(=O)Nc2c(C(=O)NCc3ccc(Cl)cc3)sc3nc(C)cc(C)c23)c1` was run?
The survival was inactive: 82%.

Which survival does the source give for `COc1ccc(OC)c(CCNC(=O)c2cnn(-c3ccccc3Cl)c2C2CCN(C(=O)OC(C)(C)C)CC2)c1` here?
Its survival is inactive: 78%.

How did the survival turn out when `COc1ccccc1NC(=O)C1=C(C)Nc2nnnn2C1c1cc(Br)c(O)c(OC)c1` (configuration not stated) was run?
Its survival is inactive: 74%.

For `COc1cccc(-n2c(=O)c3c(C)c(C)sc3n(CC(=O)NCc3ccccc3)c2=O)c1`, which survival is on record?
The survival was inactive: 93%.

Which survival does the source give for `COc1ccc(-c2nsc(NC(=O)C(C)Oc3ccc(Cl)c(C)c3)n2)cc1` (configuration not stated) here?
The survival was inactive: 67%.

`COc1ccc(NC(=O)c2cnc(Nc3ccc(C)c(Cl)c3)c3ccccc23)cc1OC` was tested. Which survival did it give?
Its survival is inactive: 87%.

`Cc1ccc(C)c(Cn2c(=O)cc(C)c3c(C)nn(-c4cccc(F)c4)c32)c1` was tested. Which survival did it give?
Its survival is inactive: 73%.

How did the survival turn out when `Cc1sc2ncn(CC(=O)N3CCN(c4cccc(Cl)c4)CC3)c(=O)c2c1S(=O)(=O)N1CCN(c2ncccn2)CC1` was run?
Its survival is inactive: 96%.

With `COc1ccccc1N1CCN(S(=O)(=O)CCNC(=O)COc2ccc(C(C)C)cc2)CC1` as the compound, how does the survival read?
Its survival is inactive: 91%.

With `CCCN(CCC)CCNC(=O)c1ccc2c(c1)NC(=O)C(CS(=O)(=O)Cc1cccc(Br)c1)N2` (configuration not stated) as the compound, how does the survival read?
The survival was inactive: 136%.

For `COc1ccc(-c2nc(C)c(CCNC(=O)C(=O)Nc3cc(C)cc(C)c3)s2)cc1OC`, which survival is on record?
The survival was inactive: 59%.

With `COc1ccc(-c2nc(SCc3cc(=O)c4cc(C)ccc4[nH]3)n[nH]2)cc1` as the compound, how does the survival read?
Its survival is inactive: 74%.

How did the survival turn out when `COc1ccc(NC(=O)c2ccc3c(SCC(=O)O)c4c(nc3c2)CCC4)c(OC)c1` was run?
The survival was inactive: 89%.

With `CCOc1ccccc1N1CC(c2nc3ccccc3n2Cc2c(C)cc(C)cc2C)CC1=O` (configuration not stated) as the compound, how does the survival read?
The survival was inactive: 102%.

With `Cc1ccc(NC(=O)Cn2nc(C)n3cccc3c2=O)c(C)c1` as the compound, how does the survival read?
The survival was inactive: 95%.

With `CCOCCCNC(=O)C(c1ccc(OC)cc1)N(Cc1ccc2c(c1)OCO2)C(=O)c1ccccc1O` (configuration not stated) as the compound, how does the survival read?
The survival was inactive: 74%.

With `Cc1ccccc1C(=O)Nc1c(C)nc(Nc2ccccc2)nc1Nc1ccccc1` as the compound, how does the survival read?
Its survival is inactive: 94%.

Which survival does the source give for `CC(=O)N1c2ccc(S(=O)(=O)NCC3CCC(C(=O)Nc4cccc(C)c4C)CC3)cc2CC1C` (configuration not stated) here?
Its survival is inactive: 95%.

Which survival does the source give for `Cc1cccc(N2CCN(C(=O)c3cc4c(=O)n(C)c5ccccc5c4s3)CC2C)c1` (configuration not stated) here?
Its survival is inactive: 61%.

Which survival does the source give for `COc1ccc(N2CC(C(=O)NCc3nnnn3-c3ccc(C)c(C)c3)CC2=O)cc1` (configuration not stated) here?
Its survival is inactive: 88%.

How did the survival turn out when `COc1ccc(CCNC(=O)C(=O)NCC(c2ccco2)S(=O)(=O)c2ccccc2)cc1` (configuration not stated) was run?
The survival was inactive: 72%.

Which survival does the source give for `Cc1cccc(N2C(=O)CSC23C(=O)N(CC(=O)NCc2ccccc2Cl)c2ccccc23)c1` (configuration not stated) here?
Its survival is inactive: 135%.

Which survival does the source give for `COc1ccccc1NC(=O)Cn1c(=O)c(CNc2ccc(C)cc2)cc2cc3c(cc21)OCCO3` here?
Its survival is inactive: 49%.

For `COc1ccc(-c2nnc3n2N(C(C)=O)C(c2ccc(Cl)c(Cl)c2)=C(C(C)=O)S3)cc1`, which survival is on record?
The survival was active: -3%.

How did the survival turn out when `O=C(Cn1c(SCCOc2ccc(Cl)cc2)nc2ccccc21)N1CCCCC1` was run?
The survival was inactive: 71%.

With `COCCCn1c(SCC(=O)N(Cc2ccco2)c2nccs2)nc2sc3c(c2c1=O)CCC3` as the compound, how does the survival read?
The survival was inactive: 87%.

How did the survival turn out when `O=c1[nH]c(=O)n(C2CCCCC2)c(O)c1C1=Nc2ccccc2SC(c2ccc(Cl)cc2)C1` (configuration not stated) was run?
The survival was inactive: 81%.

Which survival does the source give for `COc1ccc2cc3cc(C(=O)N4CCN(c5ccccc5F)CC4)oc3nc2c1` here?
Its survival is inactive: 64%.

`O=C(NC12CC3CC(CC(C3)C1)C2)N1CCC(O)(c2ccc3c(c2)OCO3)CC1` was tested. Which survival did it give?
The survival was inactive: 99%.

How did the survival turn out when `CC1SC2(C(=O)Nc3ccccc32)N(c2ccccc2)C1=O` (configuration not stated) was run?
The survival was inactive: 99%.

`CCCOc1ccc(C2CC(=O)Nc3c2c(C)nn3-c2nncc(-c3cccc(OC)c3)n2)cc1OC` (configuration not stated) was tested. Which survival did it give?
The survival was inactive: 72%.

How did the survival turn out when `COc1cccc(C2=CC(c3cc(Br)ccc3F)n3nnnc3N2)c1` (configuration not stated) was run?
The survival was active: -4%.

For `O=C(CCc1ccccc1)NCc1ccc2c(c1)OCO2`, which survival is on record?
Its survival is inactive: 106%.

Which survival does the source give for `Cc1nc2c(c(C)c1CCC(=O)NCc1ccc(Cl)cc1)c(=O)n(C)c(=O)n2C` here?
Its survival is inactive: 96%.

For `Cc1cccc(NC(=O)c2ccc3c(c2)CCN3S(=O)(=O)c2ccccc2)c1C`, which survival is on record?
Its survival is inactive: 84%.

With `Cc1ccc(NC(=O)Nc2sc3nc4n(c(=O)c3c2C)CCC(C)CC4)c(Cl)c1` (configuration not stated) as the compound, how does the survival read?
The survival was inactive: 136%.

`COc1cccc(OC)c1C(=O)Nc1nc2c(s1)CCc1ccccc1-2` was tested. Which survival did it give?
The survival was inactive: 84%.

Which survival does the source give for `O=C1C2C3C=CC(C3)C2C(=O)N1c1ccc(Cl)cc1` (configuration not stated) here?
Its survival is inactive: 101%.

With `COC(=O)c1ccc(NC(=O)N2CCN(Cc3cc(=O)n4nc(-c5ccc(C)cc5)sc4n3)CC2)cc1` as the compound, how does the survival read?
Its survival is inactive: 68%.

Which survival does the source give for `CC(CNC(=O)CN1C(=O)c2cccnc2Oc2ccc(Cl)cc21)c1ccccc1` (configuration not stated) here?
The survival was inactive: 73%.

`COc1ccc(-c2noc(-c3ccc(N4CCN(c5ccccc5)CC4)c([N+](=O)[O-])c3)n2)cc1` was tested. Which survival did it give?
Its survival is inactive: 83%.

Which survival does the source give for `O=C(NCc1nc2ccccc2[nH]1)c1c(F)cccc1F` here?
Its survival is inactive: 70%.

With `Cc1cccc(-n2c(C)nc3cc(C(=O)NCCC4=CCCCC4)ccc32)c1` as the compound, how does the survival read?
The survival was inactive: 73%.

How did the survival turn out when `Cc1ccc(/C=C/c2onc(C)c2S(=O)(=O)N2CCC(C(=O)N3CCN(c4ccccc4F)CC3)CC2)cc1` was run?
Its survival is inactive: 136%.

`O=C(NCCN1CCOCC1)c1ccc2c(c1)OCCO2` was tested. Which survival did it give?
Its survival is inactive: 89%.

For `CCn1c(=O)cc(OCC(=O)N2CCN(c3ccc(OC)cc3)CC2)c2ccccc21`, which survival is on record?
The survival was inactive: 80%.

How did the survival turn out when `CC(C)(C)C(=O)NC1CCN(S(=O)(=O)c2ccc(C(F)(F)F)cc2)CC1` was run?
The survival was inactive: 98%.

`CNC(=O)c1c(O)c2cc(OC)c(OC)cc2[nH]c1=O` was tested. Which survival did it give?
The survival was inactive: 103%.

Which survival does the source give for `COc1ccc(NC(=O)CCNS(=O)(=O)c2cccc3nsnc23)cc1Cl` here?
The survival was inactive: 59%.

How did the survival turn out when `O=C(O)c1cccc(Nc2nc(-c3ccccn3)cs2)c1` was run?
Its survival is inactive: 112%.

Which survival does the source give for `COc1ccc(CCNC(=O)c2cc3sccc3n2Cc2ccc(Cl)cc2)cc1OC` here?
Its survival is inactive: 95%.

With `CCOc1ccccc1CN1CCc2nc(Nc3ccc4c(c3)OCCO4)ncc2C1` as the compound, how does the survival read?
Its survival is inactive: 83%.

For `O=C(NCCc1ccccc1Cl)c1ccc2c(=O)n(-c3ccccc3)c(=O)[nH]c2c1`, which survival is on record?
Its survival is inactive: 94%.

Which survival does the source give for `CCCS(=O)(=O)N1CC(=O)N(c2ccc(C)cc2)C(C)(C(=O)NC2CCCCCC2)C1` (configuration not stated) here?
The survival was inactive: 84%.

Which survival does the source give for `O=C(CSc1nc(Nc2ccc(F)cc2)c2ccccc2n1)c1ccc(F)cc1` here?
Its survival is inactive: 130%.

`COCC(=O)NCc1ccc2c(c1)OCO2` was tested. Which survival did it give?
The survival was inactive: 114%.

With `CCN(C(=O)Cn1cnc2onc(-c3ccc(F)cc3)c2c1=O)c1ccc(OC)cc1` as the compound, how does the survival read?
The survival was inactive: 75%.

Which survival does the source give for `Cc1cc(C)c2nc(NC(=O)c3ccc(S(=O)(=O)N4CCc5ccccc54)cc3)sc2c1` here?
Its survival is inactive: 82%.

`CCN1CCN(c2ccc(N=Cc3ccc(N(C)C)cc3)cc2)CC1` was tested. Which survival did it give?
Its survival is inactive: 94%.

`Cc1ccc(CNc2ncnc3onc(-c4ccc(F)cc4)c23)cc1` was tested. Which survival did it give?
The survival was inactive: 117%.

`CCOc1ccc(NC(=O)Cn2c(=O)c(CNc3ccc(CC)cc3)cc3cc4c(cc32)OCO4)cc1` was tested. Which survival did it give?
Its survival is inactive: 60%.

Which survival does the source give for `Cc1oc2ncn(CC(C)C)c(=O)c2c1C(=O)NC(C)c1ccccc1` (configuration not stated) here?
The survival was inactive: 75%.

Which survival does the source give for `COc1ccc(-c2nnc(SCC(=O)NC3CCCCC3)nc2-c2ccc(OC)cc2)cc1` here?
Its survival is inactive: 113%.

`COCCn1c(C)cc(O)c(C(c2ccccc2)N2CCN(c3ccccc3)CC2)c1=O` (configuration not stated) was tested. Which survival did it give?
Its survival is inactive: 22%.

With `COc1ccc(C(=O)Nc2ccc3c(c2)CCCN3C(=O)c2cccs2)c(OC)c1` as the compound, how does the survival read?
Its survival is inactive: 79%.

How did the survival turn out when `COc1cc(OC)c(NC(=O)N2CCCn3nc(C)cc32)cc1Cl` was run?
The survival was inactive: 60%.

Which survival does the source give for `Cc1cccc(-n2ccnc2SCC(=O)Nc2cccc3ccccc23)c1C` here?
The survival was inactive: 68%.

`CCOc1ccc(Nc2nnc(-n3nc(C)cc3C)c3ccccc23)cc1` was tested. Which survival did it give?
Its survival is inactive: 138%.

How did the survival turn out when `Cc1onc(-c2ccccc2Cl)c1C(=O)NC(C(=O)O)C(C)C` (configuration not stated) was run?
Its survival is inactive: 98%.

How did the survival turn out when `O=C(Cn1c(=O)n(Cc2ccc3c(c2)OCO3)c(=O)c2oc3ccccc3c21)Nc1ccccc1F` was run?
Its survival is inactive: 90%.

From PubChem BioAssay AID463173 (ICCB-Longwood Screening Facility, Harvard Medical School, 2010)
